{
  "source": "the antibiotic and cytotoxicity screens of Wong et al. (2023)",
  "note": "Some of the results follow.",
  "data": [
    {"tested_on": "HSkMC (human skeletal muscle cells)", "test": "cytotoxicity call (relative viability < 0.9)", "details": "10 µM", "values": [
      {"smiles": "Cc1ccc(S(=O)(=O)N(C)C[C@H]2OCCCC[C@H](C)Oc3ccc(NC(=O)Nc4ccc(C(F)(F)F)cc4)cc3C(=O)N([C@@H](C)CO)C[C@@H]2C)cc1", "cytotoxicity call": "inactive"},
      {"smiles": "C[C@@H]1CN([C@H](C)CO)C(=O)c2cccc(NC(=O)c3ccncc3)c2O[C@H]1CN(C)S(=O)(=O)c1ccc(F)cc1", "cytotoxicity call": "inactive"},
      {"smiles": "C[C@@H](N)CCc1ccc(Br)cc1", "cytotoxicity call": "inactive"},
      {"smiles": "C[C@@H]1CN([C@H](C)CO)C(=O)c2cccc(NS(=O)(=O)c3cccs3)c2O[C@@H]1CN(C)S(=O)(=O)c1ccc(F)cc1", "cytotoxicity call": "inactive"},
      {"smiles": "Cc1noc(C)c1S(=O)(=O)Nc1ccc2c(c1)C(=O)N([C@@H](C)CO)C[C@@H](C)[C@H](CN(C)Cc1ccc(C(F)(F)F)cc1)OCCCC[C@@H](C)O2", "cytotoxicity call": "inactive"},
      {"smiles": "Cc1noc(C)c1NC(=O)Nc1ccc2c(c1)CC(=O)N([C@H](C)CO)C[C@@H](C)[C@H](CN(C)Cc1ccc(C(=O)Nc3ccccc3N)cc1)O2", "cytotoxicity call": "inactive"},
      {"smiles": "N[C@H]1CC[C@@H](NC(=O)[C@H]2CCc3ccccc32)CC1", "cytotoxicity call": "inactive"},
      {"smiles": "Nc1nc(/C(=N/O)C(=O)N[C@@H]2C(=O)N3C(C(=O)O)=C(/C=C4\\CCN([C@@H]5CCNC5)C4=O)CS[C@H]23)ns1", "cytotoxicity call": "inactive"},
      {"smiles": "C[C@@H]1CN([C@@H](C)CO)C(=O)c2cc(NC(=O)Cn3cnnn3)ccc2O[C@@H]1CN(C)S(=O)(=O)c1ccc(F)cc1", "cytotoxicity call": "inactive"},
      {"smiles": "C[C@@H]1CN([C@H](C)CO)C(=O)c2cc(NS(=O)(=O)c3ccc(Cl)cc3)ccc2O[C@@H](C)CCCCO[C@@H]1CN(C)Cc1ccc(C(F)(F)F)cc1", "cytotoxicity call": "inactive"}
    ]}
  ]
}
